Experimental data from patent US20060104971A1, “Multivalent lymphotoxin beta receptor agonists and therapeutic uses thereof” (Biogen Idec MA Inc., priority 2002, published 2006).

Columns and labels:
[1] = molecular target: T1, surface LT-β-R on HT29 cells (Homo sapiens, UniProt P36941); experiment: Flow cytometry staining of surface LT-β-R on HT29 cells; type: binding
T1 construct: endogenous in cells; host or cells: HT29

[2] = test system: surface LT-β-R on COS7 cells; conditions: flow cytometry
[3] = test system: HT29 adenocarcinoma cell line; experiment: HT29 tumor cell growth inhibition (MTT) with interferon gamma; type: cell-based; conditions: HT29 cells, human interferon gamma 80 U/ml, 4 days in culture, MTT staining; lower absorbance = more growth reduction
[4] = Avidity of secreted chCBE11 with IgM tailpiece; type: binding; conditions: secreted by 293-EBNA cells co-transfected with pEAG995 and pEAG982

T1 sequence (P36941 31-435): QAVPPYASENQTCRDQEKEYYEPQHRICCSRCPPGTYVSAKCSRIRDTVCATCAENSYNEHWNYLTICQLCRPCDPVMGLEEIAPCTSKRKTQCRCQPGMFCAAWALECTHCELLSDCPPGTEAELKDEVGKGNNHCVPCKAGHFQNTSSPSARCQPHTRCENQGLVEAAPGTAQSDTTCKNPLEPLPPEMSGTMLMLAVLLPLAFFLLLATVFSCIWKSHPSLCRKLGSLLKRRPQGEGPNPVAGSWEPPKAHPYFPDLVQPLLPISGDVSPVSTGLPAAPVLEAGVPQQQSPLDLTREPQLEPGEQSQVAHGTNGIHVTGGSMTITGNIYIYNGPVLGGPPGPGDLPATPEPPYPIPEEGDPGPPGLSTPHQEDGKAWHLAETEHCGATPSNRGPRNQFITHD

B1: huCBE11/huBHA10 Bispecific-2: scFv.huCBE11 fused by 2× Gly4Ser linker to human IgG1 Fc, fused at Fc C-terminus to scFv.huBHA10; SEQ ID NO: 6 (protein)
chain: EVQLVESGGGLVKPGGSLRLSCAASGFTFSDYYMYWFRQAPGKGLEWVATISDGGSYTYYPDSVKGRFTISRDNAKNSLYLQMSSLRAEDTAVYYCAREENGNFYYFDYWGQGTTVTVSSGGGGSGGGGSGGGGSDIQMTQSPSSLSASVGDRVTITCKAGQDIKSYLSWYQQKPGKAPKLLIYYATRLADGVPSRFSGSGSGTDYTLTISSLQPEDFATYYCLQHGESPWTFGGGTKLEIKGGGGSGGGGS[left out - human IgG1 Fc with changes]GGGSGGGGSQVQLVQSGAEVKKPGSSVKVSCKASGYTFTTYYLHWVRQAPGQGLEWMGWIYPGNVHAQYNEKFKGRVTITADKSTSTAYMELSSLRSEDTAVYYCARSWEGFPYWGQGTTVTVSSGGGGSGGGGSGGGGSDIQMTQSPSSLSASVGDRVTITCKASQNVGINVAWYQQKPGKAPKSLISSASYRYSGVPSRFSGSGSGTDFTLTISSLQPEDFATYFCQQYDTYPFTFGQGTKVEIK
ability to stain surface LT-β-R on HT29 cells [1]: ability to stain
ability to stain surface LT-β-R on COS7 cells [2]: ability to stain

B2: CBE11 pentamer: chimeric CBE11-huIgG1 heavy chain with IgM C-terminal tailpiece plus chimeric CBE11 light chain; ten antigen-binding sites; SEQ ID NO: 18 and 20 (antibody)
heavy: EVQLVESGGGLVKPGGSLKLSCAASGFTFSDYYMYWFRQTPEKRLEWVATISDGGSYTYYPDSVKGRFTISRDNAKNNLYLQMSSLKSEDTAMYYCVREENGNFYYFDYWGQGTTVTVSS[left out - human IgG1 constant region with changes and a few adjoining residues]
light: DIKMTQSPSSMYASLGERVTITCKAGQDIKSYLSWYQQKPWKSPKILIYYATRLADGVPSRFSGSGSGQDYSLTISSLESDDTATYYCLQHGESPWTFGGGTKLEIKRTVAAPSVFIFPPSDEQLKSGTASVVCLLNNFYPREAKVQWKVDNALQSGNSQESVTEQDSKDSTYSLSSTLTLSKADYEKHKVYACEVTHQGLSSPVTKSFNRGEC
minimum A450 (plateau corresponding to maximum of activity) [3]: 0.3
avidity [4]: greatly enhanced avidity
